Experimental data taken from paper PMC4778918, “Signal Transduction at the Domain Interface of Prokaryotic Pentameric Ligand-Gated Ion Channels” (PLoS Biology, 2016).

Target: ELIC T28D (Dickeya chrysanthemi, UniProt P0C7B7, INS163G/T28D)
Assay type: cell-based, Erwinia chrisanthemi
Conditions: ELIC T28D in X. laevis oocytes, two-electrode voltage clamp, 0.5 mM Ca2+; read-out: EC50 of channel activation

NCCS [cysteamine]
pEC50: 4.74

pEC50: −log10 of the molar value.
